In the supplement of paper PMC4604168 (melanoma cell lines):
The other results are listed elsewhere or left out. Most values come without repeats; read them as rough.

Columns and labels:
Experiment in all cases: cell count relative to DMSO control; melanoma cells; higher = more viable cells
Settings in all cases: library dose: low library concentration; 72 h
COLO792 = test system: COLO792
COLO800 = test system: COLO800
COLO829 = test system: COLO829
G361 = test system: G361
IPC-298 = test system: IPC-298
IST-MEL1 = test system: IST-MEL1
LB2518-MEL = test system: LB2518-MEL
LOXIMVI = test system: LOXIMVI
MEL-HO = test system: MEL-HO
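Further: cell number obtained by counting DAPI-stained nuclei in high-throughput microscope images with image analysis software, screen run in 1,536-well plates.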

SMILES	cell count (COLO792)	cell count (COLO800)	cell count (COLO829)	cell count (G361)	cell count (IPC-298)	cell count (IST-MEL1)	cell count (LB2518-MEL)	cell count (LOXIMVI)	cell count (MEL-HO)
CS(=O)(=O)c1ccc(C(=O)Nc2ccc(Cl)c(-c3ccccn3)c2)c(Cl)c1 [vismodegib] + CO[C@@H]1[C@H](N(C)C(=O)c2ccccc2)C[C@H]2O[C@]1(C)n1c3ccccc3c3c4c(c5c6ccccc6n2c5c31)C(=O)NC4 [Midostaurin] (first compound 1 µM, partner dose 0.08 µM)	103%	65.1%	97.8%	97.8%	105%	109%	115%	95.2%	96.8%
CCCS(=O)(=O)Nc1ccc(F)c(C(=O)c2c[nH]c3ncc(Cl)cc23)c1F + OCCn1cc(-c2cnc3nnn(Cc4ccc5ncccc5c4)c3n2)cn1 [PF04217903] (first compound 0.08 µM, partner dose 1 µM)	104%	101%	107%	90.5%	106%	99.5%	103%	87%	90.1%
CS(=O)(=O)c1ccc(C(=O)Nc2ccc(Cl)c(-c3ccccn3)c2)c(Cl)c1 [vismodegib] + Cc1ccc(NC(=O)c2cccc(N(C)C)c2)cc1NC(=O)c1ccc(O)cc1 [ZM336372] (first compound 1 µM, partner dose 2 µM)	133%	123%	120%	115%	94.8%	105%	95.9%	106%	94.6%
CS(=O)(=O)c1ccc(C(=O)Nc2ccc(Cl)c(-c3ccccn3)c2)c(Cl)c1 [vismodegib] + COc1cc(Nc2ncc(F)c(Nc3ccc4c(n3)NC(=O)C(C)(C)O4)n2)cc(OC)c1OC [Tamatinib] (first compound 1 µM, partner dose 0.4 µM)	58.4%	86.5%	89%	83.4%	86.4%	88%	84.7%	110%	94.3%
C=C(c1ccc(C(=O)O)cc1)c1cc2c(cc1C)C(C)(C)CCC2(C)C [Bexarotene] + Oc1cc(-c2nc(-c3ccccc3)[nH]c2-c2ccncc2)ccc1Cl [L779450] (first compound 2 µM, partner dose 0.2 µM)	111%	181%	116%	94.7%	88.4%	99.2%	83.6%	161%	84.1%
CN(c1ncccc1CNc1nc(Nc2ccc3c(c2)CC(=O)N3)ncc1C(F)(F)F)S(C)(=O)=O + OCCn1cc(-c2cnc3nnn(Cc4ccc5ncccc5c4)c3n2)cn1 [PF04217903] (first compound 0.08 µM, partner dose 1 µM)	72.9%	109%	77.6%	72.5%	98.9%	97.5%	84.8%	104%	91.4%
C=C(c1ccc(C(=O)O)cc1)c1cc2c(cc1C)C(C)(C)CCC2(C)C [Bexarotene] + CC(C)(C)c1cnc(CSc2cnc(NC(=O)C3CCNCC3)s2)o1 [SNS-032] (first compound 2 µM, partner dose 0.01 µM)	108%	122%	106%	98.4%	104%	90.2%	93.3%	82.9%	87.8%
CN(c1ncccc1CNc1nc(Nc2ccc3c(c2)CC(=O)N3)ncc1C(F)(F)F)S(C)(=O)=O + CCc1ccc(CCOc2ccc(CC3SC(=O)NC3=O)cc2)nc1 [pioglitazone] (first compound 0.08 µM, partner dose 2 µM)	71.1%	98%	62.3%	102%	98.4%	89.8%	98.6%	49.3%	129%
NC1(c2ccc(-c3nc4ccn5c(=O)[nH]nc5c4cc3-c3ccccc3)cc2)CCC1 + O=C(O)C(=O)Nc1sc2c(c1C(=O)O)CCNC2 [TCS401] (first compound 0.4 µM, partner dose 1.66667 µM)	71.8%	85.8%	112%	95.4%	92.4%	98.1%	82.3%	87.8%	73.1%
CN(c1ncccc1CNc1nc(Nc2ccc3c(c2)CC(=O)N3)ncc1C(F)(F)F)S(C)(=O)=O + COc1ccc2c(c1)CCC1C2CCC2(C)C(NCCCCCCN3C(=O)C=CC3=O)CCC12 [U73122] (first compound 0.08 µM, partner dose 0.4 µM)	100%	133%	79.3%	100%	100%	99.4%	95.4%	83.9%	84.8%
CS(=O)(=O)c1ccc(C(=O)Nc2ccc(Cl)c(-c3ccccn3)c2)c(Cl)c1 [vismodegib] + Cc1cc(N2CCOCC2)cc2[nH]c(-c3c(NC[C@@H](O)c4cccc(Cl)c4)cc[nH]c3=O)nc12 [BMS536924] (first compound 1 µM, partner dose 0.2 µM)	74.2%	37.2%	130%	92.2%	89.4%	90.4%	82.1%	125%	88%
CN(c1ncccc1CNc1nc(Nc2ccc3c(c2)CC(=O)N3)ncc1C(F)(F)F)S(C)(=O)=O + N#Cc1c(O)c2c(-c3ccc(-c4ccccc4O)cc3)csc2[nH]c1=O [A769662] (first compound 0.08 µM, partner dose 2 µM)	85.1%	103%	48.8%	103%	105%	104%	103%	93.4%	97.7%
NC1(c2ccc(-c3nc4ccn5c(=O)[nH]nc5c4cc3-c3ccccc3)cc2)CCC1 + CN(NC(=O)CC(=O)NN(C)C(=S)c1ccccc1)C(=S)c1ccccc1 [STA4783] (first compound 0.4 µM, partner dose 0.006 µM)	52.9%	20.5%	62.8%	82%	90.3%	83.6%	56.3%	61.9%	70.8%
NC1(c2ccc(-c3nc4ccn5c(=O)[nH]nc5c4cc3-c3ccccc3)cc2)CCC1 + CN(C)S(=O)(=O)c1ccc2c(c1)/C(=C/c1cc3c([nH]1)CCCC3)C(=O)N2 [SU6656] (first compound 0.4 µM, partner dose 0.4 µM)	66.9%	77.2%	83.4%	91.5%	98.9%	89.4%	92.8%	85.8%	76.6%
C=C(c1ccc(C(=O)O)cc1)c1cc2c(cc1C)C(C)(C)CCC2(C)C [Bexarotene] + C[C@@H]1CCN(C(=O)CC#N)C[C@@H]1N(C)c1ncnc2[nH]ccc12 [CP690550] (first compound 2 µM, partner dose 1 µM)	86.9%	101%	103%	88.9%	98.4%	97.3%		151%	97.1%
CS(=O)(=O)c1ccc(C(=O)Nc2ccc(Cl)c(-c3ccccn3)c2)c(Cl)c1 [vismodegib] + CC(C)(C)c1cnc(CSc2cnc(NC(=O)C3CCNCC3)s2)o1 [SNS-032] (first compound 1 µM, partner dose 0.01 µM)	90.4%	101%	88.3%	102%	102%	102%	84.5%	69.1%	91.8%
NC1(c2ccc(-c3nc4ccn5c(=O)[nH]nc5c4cc3-c3ccccc3)cc2)CCC1 + Cc1cc(N2CCOCC2)cc2[nH]c(-c3c(NC[C@@H](O)c4cccc(Cl)c4)cc[nH]c3=O)nc12 [BMS536924] (first compound 0.4 µM, partner dose 0.2 µM)	54.6%	49.7%	106%	80.3%	97.7%	92.8%		83.4%	73.8%
CN(c1ncccc1CNc1nc(Nc2ccc3c(c2)CC(=O)N3)ncc1C(F)(F)F)S(C)(=O)=O + CCN(CC)CCCCNc1ncc2cc(-c3cc(OC)cc(OC)c3)c(NC(=O)NC(C)(C)C)nc2n1 [PD173074] (first compound 0.08 µM, partner dose 0.1 µM)	74.4%	64.6%	86.4%	83.9%	98%	98.4%	94.4%	76.4%	94.6%
NC1(c2ccc(-c3nc4ccn5c(=O)[nH]nc5c4cc3-c3ccccc3)cc2)CCC1 + COc1cc(Nc2ncc(F)c(Nc3ccc4c(n3)NC(=O)C(C)(C)O4)n2)cc(OC)c1OC [Tamatinib] (first compound 0.4 µM, partner dose 0.4 µM)	22.3%	109%	89.2%	64.6%	78.4%	92.5%	57%	46.1%	66.8%
CS(=O)(=O)c1ccc(C(=O)Nc2ccc(Cl)c(-c3ccccn3)c2)c(Cl)c1 [vismodegib] + O=C(Nc1cccc(Cl)c1)Nc1ncc(CCNc2ncnc3ccsc23)s1 [SNS314] (first compound 1 µM, partner dose 0.0008 µM)	96.5%	102%	75.7%	107%	94.5%	113%	95.8%	71.3%	104%
C=C(c1ccc(C(=O)O)cc1)c1cc2c(cc1C)C(C)(C)CCC2(C)C [Bexarotene] + COc1ccc(COc2ccc(Cc3cnc(N)nc3N)cc2OC)cc1 [GW2580] (first compound 2 µM, partner dose 1 µM)	108%	184%	111%	86.7%	96.9%	99.1%	101%	109%	91.1%
CS(=O)(=O)c1ccc(C(=O)Nc2ccc(Cl)c(-c3ccccn3)c2)c(Cl)c1 [vismodegib] + OCCn1cc(-c2cnc3nnn(Cc4ccc5ncccc5c4)c3n2)cn1 [PF04217903] (first compound 1 µM, partner dose 1 µM)	114%	100%	111%	109%	98.2%	97.5%	96.2%	93.3%	98.5%
NC1(c2ccc(-c3nc4ccn5c(=O)[nH]nc5c4cc3-c3ccccc3)cc2)CCC1 + C[C@@H]1CCN(C(=O)CC#N)C[C@@H]1N(C)c1ncnc2[nH]ccc12 [CP690550] (first compound 0.4 µM, partner dose 1 µM)	70.5%	132%	101%	97.1%	92.5%	85.9%	89%	74.3%	89.8%
